Results: the supplement of paper PMC3334620
The full ranking holds about 33,000 sequences; the median of “E-score (-0.5 to 0.5)” is about -0.035, and the highest 2% start at about 0.35. The list shows a part of the results.

Molecular target: T1, Pdr3 (UniProt P33200)
T1 sequence: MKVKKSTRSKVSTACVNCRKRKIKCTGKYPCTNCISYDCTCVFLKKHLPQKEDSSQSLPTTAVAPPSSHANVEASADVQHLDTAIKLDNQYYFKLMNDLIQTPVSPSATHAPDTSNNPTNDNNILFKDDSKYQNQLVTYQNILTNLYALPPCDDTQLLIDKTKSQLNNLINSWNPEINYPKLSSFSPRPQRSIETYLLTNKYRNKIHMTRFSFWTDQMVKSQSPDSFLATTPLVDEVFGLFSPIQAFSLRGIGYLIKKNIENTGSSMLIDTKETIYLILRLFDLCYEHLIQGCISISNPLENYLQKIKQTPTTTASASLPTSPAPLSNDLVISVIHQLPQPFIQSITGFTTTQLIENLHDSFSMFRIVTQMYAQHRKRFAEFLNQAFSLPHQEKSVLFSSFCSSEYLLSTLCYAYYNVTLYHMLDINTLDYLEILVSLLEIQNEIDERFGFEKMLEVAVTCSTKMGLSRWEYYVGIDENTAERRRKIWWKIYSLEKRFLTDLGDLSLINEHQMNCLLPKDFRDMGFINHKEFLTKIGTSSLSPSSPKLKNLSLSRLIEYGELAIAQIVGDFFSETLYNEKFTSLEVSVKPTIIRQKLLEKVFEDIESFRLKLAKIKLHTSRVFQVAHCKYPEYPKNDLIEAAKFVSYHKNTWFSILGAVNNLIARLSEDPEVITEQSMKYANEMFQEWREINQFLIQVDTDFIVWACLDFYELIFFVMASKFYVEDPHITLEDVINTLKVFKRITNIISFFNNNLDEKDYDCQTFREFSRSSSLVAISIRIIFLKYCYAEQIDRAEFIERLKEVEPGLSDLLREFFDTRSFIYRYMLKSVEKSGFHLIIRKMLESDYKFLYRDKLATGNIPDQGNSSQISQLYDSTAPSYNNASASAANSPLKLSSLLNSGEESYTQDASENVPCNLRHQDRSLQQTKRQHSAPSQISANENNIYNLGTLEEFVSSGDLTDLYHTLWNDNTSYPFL
Assay: PBM E-score (8-mer binding enrichment) (E-score (-0.5 to 0.5)); higher = stronger / more preferred TF binding; most listed sequences are background and not binding sites
Details: protein concentration: 200 nM; construct: GST-full length
Outline: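 Full-length yeast transcription factors or their DNA-binding domains, GST-tagged and expressed with PURExpress, were applied at about 100-200 nM to universal all-10-mer Agilent arrays. These arrays had been made double-stranded by primer extension on fresh or once-stripped slides. Detection used fluorescent anti-GST, normalisation used masliner, and E-scores for ungapped eight-base words pooled with reverse complements came from the Universal PBM Analysis Suite.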

| Sequence | PBM E-score |
| --- | --- |
| CGCCCGTA | -0.0283 |
| ACCACGAG | -0.0546 |
| AGCTTGTC | 0.00669 |
| AATGATCG | 0.00228 |
| ATTTATAG | -0.162 |
| ATGGGACA | 0.0455 |
| GCACGGCC | 0.21 |
| ACTATGAT | -0.0762 |
| ACATTAGC | -0.0887 |
| CATTAGAA | -0.112 |
| ACTTACTC | -0.131 |
| ACTCCCAA | -0.169 |
| CTCGAAAG | -0.094 |
| CGTTCTAG | -0.0323 |
| CTAGACAG | -0.124 |
| ACTAGTAC | -0.105 |
| CAATGACA | -0.182 |
| CTACAGCA | -0.0661 |
| GAGACCAA | 0.151 |
| AATTAAGA | -0.106 |
| GATCTTCA | 0.0569 |
| ACTAAAAA | 0.119 |

| Sequence | PBM E-score |
| --- | --- |
| GCCTTTTA | -0.241 |
| ACGATGAG | 0.0497 |
| GTGTGCAA | -0.072 |
| GAGACATA | -0.0427 |
| CGATCACA | 0.0753 |
| GCTGTTGA | 0.0325 |
| CCCTAATA | -0.113 |
| GCATTCAA | -0.0547 |
| CCTGTCGA | -0.195 |
| CTGGTAAC | 0.0131 |
| ACCATCCC | 0.191 |
| CTTCCCTA | -0.168 |
| ACTCCAAA | -0.123 |
| AGTTGCCA | -0.0379 |
| TGCGAACA | -0.0762 |
| GGGGAAGA | -0.174 |
| ATCGCTAG | -0.0365 |
| AAAATGAG | -0.188 |
| CACAGGGG | -0.257 |
| CACTGTGC | 0.0326 |
| AATGACGG | 0.174 |
| CAAGTACC | -0.0464 |

| Sequence | PBM E-score |
| --- | --- |
| ACGGAGTG | 0.323 |
| AGCGCCAT | -0.138 |
| AGATCCCT | -0.142 |
| AACTCTAG | -0.339 |
| AGGTCGGC | -0.00042 |
| CTCCTCGC | -0.16 |
| AGCCGCTC | 0.0409 |
| ATATGCGG | 0.184 |
| ACCACACC | 0.00706 |
| CTGCTAAC | -0.217 |
| AAGGAGGT | -0.145 |
| GGGACCCC | 0.122 |
| AGCCGCTG | 0.056 |
| ACCCGTGA | 0.0325 |
| CACCTTCA | -0.0629 |
| AGCAGGAC | -0.00491 |
| GTGGATTA | -0.0959 |
| CACTCAGA | -0.0449 |
| AAACTGAG | -0.0857 |
| AACGATCA | -0.126 |
| CAGTTAGC | -0.229 |
| GTGGCCGA | 0.107 |

| Sequence | PBM E-score |
| --- | --- |
| AAACTCGT | 0.0275 |
| CCCTTCAA | -0.193 |
| ACTCGAGC | -0.00557 |
| TAGGAGAA | -0.201 |
| AAATCGGT | -0.157 |
| AGTATTTC | 0.155 |
| GATTCTCC | 0.141 |
| TATGTGGA | 0.0477 |
| ATGACCGG | 0.0923 |
| CCCCTGAC | 0.0303 |
| CAGTGGTA | -0.213 |
| CCCCGAAC | 0.129 |
| AAGACAGT | -0.024 |
| AGTAGAAG | -0.189 |
| ACAGGGGC | -0.122 |
| ACTAGGAT | -0.196 |
| CCCGTACC | 0.153 |
| GCACCCAC | 0.0912 |
| AATCTGGG | -0.0768 |
| ATAAGCGG | -0.0222 |
